From article PMC4081100
The list shows a part of the results, in another mix than the full data. For part of these data: At the low end of the ranking the order means little. The list shows a part of the results. For part of these data: The source does not settle which construct or isoform was used.

How the values were obtained:
Test in all cases: universal protein binding microarray (PBM)
Conditions in all cases: transcription factors of Arabidopsis thaliana; high values mean tight binding; most listed sequences are background and not binding sites; double strand, one strand shown
GST-ANAC019 NAC domain = target: T1, GST-ANAC019 NAC domain (UniProt Q9C932)
T1 sequence: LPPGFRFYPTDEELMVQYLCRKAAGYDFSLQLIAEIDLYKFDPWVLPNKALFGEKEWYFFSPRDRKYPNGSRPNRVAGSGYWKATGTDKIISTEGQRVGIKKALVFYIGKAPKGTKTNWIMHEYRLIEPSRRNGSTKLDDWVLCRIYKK

GST-NST2(1-184) = target: T2, GST-NST2(1-184) (UniProt Q9M274)
T2 sequence: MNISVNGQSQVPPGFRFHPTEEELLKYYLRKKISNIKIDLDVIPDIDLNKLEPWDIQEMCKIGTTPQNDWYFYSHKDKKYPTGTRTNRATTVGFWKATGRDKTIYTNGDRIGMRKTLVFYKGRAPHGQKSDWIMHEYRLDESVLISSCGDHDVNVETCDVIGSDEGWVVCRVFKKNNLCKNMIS

GST-NTL8 NAC domain = target: T3, GST-NTL8 NAC domain (UniProt Q9XIN7)
T3 sequence: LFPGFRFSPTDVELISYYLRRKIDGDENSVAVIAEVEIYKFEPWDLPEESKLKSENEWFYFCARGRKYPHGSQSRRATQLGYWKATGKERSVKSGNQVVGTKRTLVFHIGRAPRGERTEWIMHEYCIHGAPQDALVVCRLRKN

GST-VND3 NAC domain = target: T4, GST-VND3 NAC domain (UniProt Q9FH59)
T4 sequence: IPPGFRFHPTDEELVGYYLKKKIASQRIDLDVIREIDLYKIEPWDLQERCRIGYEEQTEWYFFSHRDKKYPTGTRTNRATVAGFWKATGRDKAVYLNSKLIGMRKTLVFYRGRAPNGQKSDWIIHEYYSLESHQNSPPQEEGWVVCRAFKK

[1] = target: T5, GST-VOZ2 (Arabidopsis thaliana) (UniProt Q9SLB9)
T5 sequence: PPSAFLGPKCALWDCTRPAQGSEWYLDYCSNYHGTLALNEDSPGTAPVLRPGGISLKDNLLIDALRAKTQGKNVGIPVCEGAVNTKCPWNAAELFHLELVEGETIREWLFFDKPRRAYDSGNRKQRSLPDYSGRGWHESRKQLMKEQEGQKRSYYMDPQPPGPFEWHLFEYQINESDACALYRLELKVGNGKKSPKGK

GST-ANAC092(1-176) = target: T6, GST-ANAC092(1-176) (UniProt Q9FKA0)
T6 sequence: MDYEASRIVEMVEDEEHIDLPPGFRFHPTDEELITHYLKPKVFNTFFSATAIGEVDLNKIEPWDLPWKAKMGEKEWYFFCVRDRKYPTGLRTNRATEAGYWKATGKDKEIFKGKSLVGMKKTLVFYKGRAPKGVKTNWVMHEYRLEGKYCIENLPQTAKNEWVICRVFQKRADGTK

GST-NTL6(1-168) = GST-NTL6(1-168) (UniProt Q9SCK6)
GST-ANAC055(1-171) = target: T7, GST-ANAC055(1-171) (UniProt Q9LDY8)
T7 sequence: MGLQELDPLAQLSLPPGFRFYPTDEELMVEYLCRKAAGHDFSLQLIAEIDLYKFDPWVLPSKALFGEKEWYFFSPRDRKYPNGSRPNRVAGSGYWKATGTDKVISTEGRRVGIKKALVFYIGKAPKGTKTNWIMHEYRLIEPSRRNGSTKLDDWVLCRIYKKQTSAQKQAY

[2] = target: T8, GST-ANAC092(1-285) full length (UniProt Q9FKA0)
T8 sequence: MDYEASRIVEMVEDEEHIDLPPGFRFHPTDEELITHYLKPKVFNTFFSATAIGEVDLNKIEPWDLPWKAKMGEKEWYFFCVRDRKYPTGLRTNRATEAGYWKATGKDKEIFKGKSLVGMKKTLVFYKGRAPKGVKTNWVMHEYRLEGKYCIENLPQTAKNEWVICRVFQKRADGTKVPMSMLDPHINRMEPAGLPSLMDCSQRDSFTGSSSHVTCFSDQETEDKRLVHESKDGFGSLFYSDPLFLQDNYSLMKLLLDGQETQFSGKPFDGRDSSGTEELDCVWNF

GST-NAP(1-166) = target: T9, GST-NAP(1-166) (UniProt O49255)
T9 sequence: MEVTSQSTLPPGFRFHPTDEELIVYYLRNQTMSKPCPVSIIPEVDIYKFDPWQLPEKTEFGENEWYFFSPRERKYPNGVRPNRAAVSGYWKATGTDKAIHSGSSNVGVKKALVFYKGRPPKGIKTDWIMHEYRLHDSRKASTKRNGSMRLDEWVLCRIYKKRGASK

GST-VND7 NAC domain = target: T10, GST-VND7 NAC domain (UniProt Q9C8W9)
T10 sequence: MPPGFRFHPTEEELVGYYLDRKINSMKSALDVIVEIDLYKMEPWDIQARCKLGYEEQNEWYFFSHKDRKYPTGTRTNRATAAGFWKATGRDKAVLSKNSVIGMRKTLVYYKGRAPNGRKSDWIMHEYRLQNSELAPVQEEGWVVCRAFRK

GST-WRKY1(266-371) = GST-WRKY1(266-371) (UniProt Q9SI37)
GST-ATAF1 NAC domain = target: T11, GST-ATAF1 NAC domain (UniProt Q39013)
T11 sequence: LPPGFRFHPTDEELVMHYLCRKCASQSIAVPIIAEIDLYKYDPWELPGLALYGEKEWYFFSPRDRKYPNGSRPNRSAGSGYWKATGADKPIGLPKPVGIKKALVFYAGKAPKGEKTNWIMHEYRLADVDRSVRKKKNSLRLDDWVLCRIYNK

Sequence	binding signal (GST-ANAC019 NAC domain) [E-score]	binding signal (GST-NST2(1-184)) [E-score]	binding signal (GST-NTL8 NAC domain) [E-score]	binding signal (GST-VND3 NAC domain) [E-score]	binding signal [1] [E-score]	binding signal (GST-ANAC092(1-176)) [E-score]	binding signal (GST-NTL6(1-168)) [E-score]	binding signal (GST-ANAC055(1-171)) [E-score]	binding signal [2] [E-score]	binding signal (GST-NAP(1-166)) [E-score]	binding signal (GST-VND7 NAC domain) [E-score]	binding signal (GST-WRKY1(266-371)) [E-score]	binding signal (GST-ATAF1 NAC domain) [E-score]
ATAACGTA	0.0395	0.37	0.0295	0.334	0.101								
AGGGAAAC		0.0125	0.482		0.0101	0.0845	0.115	-0.00422	0.071	0.14	-0.0354	-0.0925	
TAAGTCAA	0.0328		0.000545		0.104	-0.022				0.00781	0.145	0.483	
CAAGTCAG	-0.154	-0.0841	-0.0668		0.0399	-0.0334	0.00352	-0.0805		0.0212	-0.0285	0.417	-0.0845
AAACGTGT			0.0369	0.328	0.142							-0.0783	
ATGTCAAC	-0.138		-0.103		0.0344	-0.105	0.0563		0.0406	0.106	0.124	0.443	
ACACGTCA	0.436		-0.0975		0.0676	0.484	-0.00907			0.431	0.447	0.251	
CTTACTTA	0.164		0.208		0.162	0.205					0.106	0.235	
ACGGAAAC	0.412		0.243		0.0699	0.325	0.205	0.388			0.361	0.0265	
TGAAGTCA	0.0391				0.0863	0.00095		-0.0131		0.00581	-0.00323	0.426	0.0448
AAGTCAGA	0.0582		-0.108		0.00566	0.0562	0.0583	0.073		-0.00178	0.0411	0.455	0.0162
ACACGTAT	0.406		-0.0288		0.00847	0.289	0.0255	0.342	0.369		0.381	0.00825	
TAAGCAAA	0.113		0.241		0.144	0.201			0.308		0.252	0.0104	
